{"source": "PubChem BioAssay AID686978", "about": "(National Center for Advancing Translational Sciences (NCATS), 2013)", "note": "In all, about 420,000 compounds went through this assay and about 64,000 (15%) were called active. The inconclusive results got no clear call from the source; some entries with a clear call stand among them for comparison. Calls come from the whole dose curve; as a rule, active = well fitted inhibition curve with a large enough effect; inconclusive = small, poorly fitted or top-dose-only effect; inactive = flat fitted curve, though single readings scatter. Potencies of inconclusive entries are left out as doubtful fits. Potency is the fitted concentration of half-maximal effect; tags give direction and shape of the fitted curve.", "data": [{"test": "qHTS for Inhibitors of human tyrosyl-DNA phosphodiesterase 1 (TDP1): qHTS in cells in absence of CPT; note: nearly all actives have a fitted effect of over 55% in size", "settings": "DT40 Tdp1-/- hTDP1 cells, no CPT, ATP luminescence, 48 h; series mostly up to 46.2 µM", "summary_of_the_method": "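Compound effects on proliferation are scored in DT40 Tdp1-/-;hTDP1 cells in the absence of CPT. ATP levels (CellTiter-Glo luminescence) are recorded after a ≥48 hr, 37 °C incubation.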", "values": [{"molecule": "Cc1ccc(-c2noc(CSc3nnc(-c4ccncc4)n3-c3ccc(F)cc3)n2)cc1", "Potency": "active: 18.4 µM"}, {"molecule": "N#Cc1c2c(c(NCCCN3CCOCC3)n3c1nc1ccccc13)CCC2", "Potency": "inconclusive [inhibitor, partial curve, poor fit]"}, {"molecule": "CCN(c1ccccc1)c1cc2ccccc2c(=O)[nH]1", "Potency": "inconclusive [inhibitor, single point]"}, {"molecule": "CCN(C(=O)c1cc2c(=O)oc3ccc(C)cc3c2s1)c1cc(OC)ccc1OC", "Potency": "inconclusive [inhibitor, single point]"}, {"molecule": "CCN(C(=O)CN1C(=O)CN(C)C1=O)c1cccc2ccccc12", "Potency": "inconclusive [inhibitor, partial curve]"}, {"molecule": "O=C(CC1SC(=Nc2ccccc2)N(CCc2c[nH]c3ccccc23)C1=O)Nc1ccccc1F", "note": "(centres undefined)", "Potency": "inconclusive [inhibitor, single point]"}, {"molecule": "Cc1cc(OCC(=O)NCC2CCC(C(=O)O)CC2)c2c(C)c(Cc3ccccc3)c(=O)oc2c1", "note": "(centres undefined)", "Potency": "inactive"}, {"molecule": "CCc1nc2c(OCC(=O)c3ccc(Cl)cc3Cl)cccn2c1N(C)C(=O)COc1ccccc1", "Potency": "inconclusive [inhibitor, single point]"}, {"molecule": "CCn1ccnc1CN(C)C(=O)c1cc(COc2ccc(OC)c3ccccc23)on1", "Potency": "inconclusive [inhibitor, single point]"}, {"molecule": "Cc1ccc(NC(=O)COC(=O)c2ccccc2OCC(=O)Nc2ccc(Br)cc2)c(C)c1", "Potency": "inconclusive [inhibitor, single point]"}, {"molecule": "COc1ccccc1CN1CCN(C(=O)c2cccc3ccccc23)CC1", "Potency": "inconclusive [inhibitor, single point]"}, {"molecule": "CCOC(=O)C1=C(COC(=O)/C=C/c2ccc(SC)cc2)NC(=O)NC1C", "note": "(centres undefined)", "Potency": "inconclusive [inhibitor, single point]"}, {"molecule": "Cc1cc(Cl)ccc1NNC(=O)c1snnc1C", "Potency": "inconclusive [inhibitor, single point]"}, {"molecule": "COc1ccc(-c2c(C#Cc3ccsc3)c3cc(-c4ccc(C(N)=O)cc4)ccc3n2C)cc1", "Potency": "inconclusive [inhibitor, single point]"}, {"molecule": "CC(C)(C)NC(=O)CSc1nc2ccc(NC(=O)CSc3nnnn3Cc3ccccc3)cc2s1", "Potency": "active: 10.3 µM"}, {"molecule": "COc1ccc(S(=O)(=O)Nc2ccc3cn[nH]c3c2)cc1[N+](=O)[O-]", "Potency": "inactive"}, {"molecule": "Cc1cc(=O)c2c(o1)C(=O)c1occc1C2=O", "Potency": "active: 14.6 µM"}, {"molecule": "Cc1cccnc1NC(=O)c1cccc(S(=O)(=O)N2CCN(c3ccccc3)CC2)c1", "Potency": "inconclusive [inhibitor, single point]"}, {"molecule": "CCC(CC)NC(=O)/C=C/c1ccccc1Cl", "Potency": "inconclusive [inhibitor, partial curve]"}, {"molecule": "CCN(CC)c1ccc(CN(C(=O)Cc2coc3ccc(C)cc23)C2CCS(=O)(=O)C2)cc1", "note": "(centres undefined)", "Potency": "active: 23.1 µM"}, {"molecule": "CC(C)(C)C(=O)N(CCN(C(=O)C(C)(C)C)c1ccccc1)c1ccccc1", "Potency": "inconclusive [inhibitor, single point]"}, {"molecule": "CCCNc1nc2c(c(=O)n(C)c(=O)n2C)n1Cc1ccc(F)cc1", "Potency": "active: 9.2 µM"}, {"molecule": "CCOc1cccc(CC(=O)N2CCc3c([nH]c4ccccc34)C2c2ccccc2)c1OCC", "note": "(centres undefined)", "Potency": "inconclusive [inhibitor, single point]"}, {"molecule": "CCOC(=O)N1CCN(CC(O)COc2c(C)cc(C)cc2C)CC1", "note": "(centres undefined)", "Potency": "inactive"}, {"molecule": "CCn1nc(C)c2c(-c3ccccc3)cc(=O)n(C(C)C(=O)NCc3cccc(OC)c3)c21", "note": "(centres undefined)", "Potency": "inconclusive [inhibitor, partial curve]"}, {"molecule": "O=C(Nc1ccc(N2CCN(C(=O)c3ccco3)CC2)cc1)c1ccccc1Br", "Potency": "inconclusive [inhibitor, single point]"}, {"molecule": "CCC1CCCCN1CCCNC(=O)c1ccc2c(c1)N(Cc1ccccc1)C(=O)c1ccccc1S2(=O)=O", "note": "(centres undefined)", "Potency": "inconclusive [inhibitor, single point]"}, {"molecule": "c1ccc(Nc2nc(-c3ccc4c(c3)OCO4)nc3ccccc23)cc1", "Potency": "inconclusive [inhibitor, single point]"}, {"molecule": "CN(CCc1ccccc1)C(=O)c1cccc(NC(=O)Cc2cccc(NC(=O)C3CCCN(C(=O)CCc4ccccc4)C3)c2)c1", "note": "(centres undefined)", "Potency": "active: 13 µM"}, {"molecule": "O=S(=O)(Nc1ccccc1N1CCCCC1)c1ccc(F)cc1", "Potency": "inconclusive [inhibitor, single point]"}, {"molecule": "COc1cccc(CN(C(=O)c2cccc(OC)c2)C2CCS(=O)(=O)C2)c1", "note": "(centres undefined)", "Potency": "inactive"}, {"molecule": "Cc1ccc(-c2nc3scc(CCNS(=O)(=O)c4ccc(F)c(C)c4)n3n2)cc1", "Potency": "active: 20.6 µM"}, {"molecule": "Cn1c(SCC(=O)Nc2ccccc2Br)nnc1-c1cnccn1", "Potency": "inactive"}, {"molecule": "COc1ccc(CN2CCN(C(=O)c3cccs3)CC2)cc1Br", "Potency": "inconclusive [inhibitor, partial curve]"}, {"molecule": "CCc1ccc(OCCCn2c(-c3ccc(Cl)cc3)nc3ccccc3c2=O)cc1", "Potency": "inactive"}, {"molecule": "CSc1ncccc1C(=O)OCC(=O)N1CCN(S(=O)(=O)c2ccc(C)cc2C)CC1", "Potency": "inconclusive [inhibitor, single point]"}, {"molecule": "CNCCCOc1ccc(Cl)cc1C(C)(C)C", "Potency": "active: 16.4 µM"}, {"molecule": "O=C1NC(CCc2ccccc2)C(=O)N1CCOc1ccccc1", "note": "(centres undefined)", "Potency": "inactive"}, {"molecule": "CNC(=O)c1ccsc1NC(=O)c1ccc2c(c1)CCCC2", "Potency": "inconclusive [inhibitor, single point]"}, {"molecule": "CCCCN(CCCNC(=O)c1ccc2nc(N3CCOCC3)sc2c1)Cc1ccccc1", "Potency": "active: 16.4 µM"}, {"molecule": "O=C(c1[nH]c2ccccc2c1Sc1ccc(Cl)cc1)N1CCCCC1", "Potency": "inconclusive [inhibitor, single point]"}, {"molecule": "O=C(COC(=O)CCNS(=O)(=O)c1ccccc1)NC1CC1", "Potency": "inactive"}, {"molecule": "CCC1CN(C(=O)N2CCC(C(=O)NCCc3ccccc3C)CC2)c2ccccc2O1", "note": "(centres undefined)", "Potency": "active: 20.6 µM"}, {"molecule": "N#CC1=C(N)OC2=C(C(=O)CCC2)C12CCN(C(=O)OCc1ccccc1)CC2", "Potency": "inactive"}]}]}
